Test results reported in ChEMBL document CHEMBL1201862, “PubChem BioAssay data set” (2004).
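Exposure lasted 48 hours, with cells grown in 96-well plates and compounds tested at five concentrations. Abbreviation: GI50, concentration required for 50% inhibition of growth.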 Calls of active or inactive are those of the source. Cut-off read from the data, not from the text of the source: active = GI50 up to about 1.1 µM and inactive = higher.

System: NCI-H322M
Experiment: inhibition of tumour cell growth, NCI panel, 48 h

| SMILES | GI50 |
| --- | --- |
| Fc1ccccc1C1CC(c2ccc3ccccc3c2)=Nc2ccccc2S1 (centres undefined) | inactive: > 100 µM |
| COc1ccc(N(CC(=O)O)N=O)cc1 | inactive: > 100 µM |
| Cc1ccc(S(=O)(=O)Nc2ccccc2C=O)cc1 | inactive: 21.4 µM |
| O=[N+]([O-])c1cccc2nc3ccccc3c(NCCCn3ccnc3[N+](=O)[O-])c12 | active: 0.000379 µM |
| C=C(c1ccc2[nH]c(NC(=O)OC)nc2c1)c1cccs1 | active: 0.166 µM |
| Cn1c(=S)c2nc(SCCN3C(=O)c4ccccc4C3=O)[nH]c2n(C)c1=O | inactive: > 100 µM |
| O=P(O)(CCP(=O)(O)c1ccccc1)c1ccccc1 | inactive: > 100 µM |
| Cc1cc(C)n(-c2ccnc3cc(Cl)ccc23)n1 | inactive: > 100 µM |
| Clc1ccc(NCNC2Nc3ccccc3N2)cc1Cl | inactive: > 100 µM |
| CCNC(=S)NNC(=O)c1csc(NC(=S)NC2CCCCC2)n1 | inactive: 8.22 µM |
| Cc1cc(C)c(-c2noc(-c3ccc(Cl)cc3)c2C2=NCCN2)c(C)c1 | inactive: 26.4 µM |
| COc1ccc(C2=NOC(N)(c3ccc(OC)cc3)C2)cc1 (centres undefined) | inactive: > 100 µM |
| O=c1oc2c/c(=C\c3ccc([N+](=O)[O-])cc3)c(=O)c3cccc1c3-2 | inactive: > 100 µM |
| CSc1scc2c1/C(=N/NC(N)=O)CCC2 | inactive: > 100 µM |
| COC(=O)N/N=C(/CCN1CCCC1)CC(c1ccccc1)c1c(O)c2ccccc2oc1=O (centres undefined) | inactive: > 100 µM |
| CC1=CC(c2ccccc2)n2c(nc3cc4ccccc4cc32)N1 (centres undefined) | inactive: > 100 µM |
| N#CCC12CC=CCC1=C(O)C(=O)c1ccc(O)cc12 (centres undefined) | inactive: > 100 µM |
| NC(CC1=CCC=CC1)C(=O)O (centres undefined) | inactive: 60.3 µM |
| COc1ccc(CNC(C)C(=O)O)cc1 (centres undefined) | inactive: > 100 µM |
| COC(=O)c1cc2c3c(ccc2[nH]1)N(C(=O)c1cc2cc(OC)c(OC)c(OC)c2[nH]1)CC3CCl (centres undefined) | inactive: > 100 µM |
| CCOC(=O)C(C(CC(=O)OC)NC(=O)OCc1ccccc1)C1(C)OCCO1 (centres undefined) | inactive: > 100 µM |
| O=c1cc2n(c(=O)[nH]1)C1OC(C(O)C1O)[C@H]2CCO (some centres undefined) | inactive: > 100 µM |
| C=C1C(=O)OC2/C=C(\COC(C)=O)CCC(OC(C)=O)C3=CC(OC3=O)C12 (centres undefined) | inactive: 13.2 µM |
| Nc1nc(Nc2cc(F)c(Cl)c(F)c2)cc(=O)[nH]1 | inactive: 57.3 µM |

| SMILES | GI50 |
| --- | --- |
| C1OCN2c3nonc3N3COCN4c5nonc5N1C2C43 (centres undefined) | inactive: > 100 µM |
| CC(=O)N1CCC(=O)/C(=C/c2ccccc2)C1 | inactive: > 100 µM |
| C[C@H](c1ccccc1)N1C(=O)[C@@H](OCc2ccccc2)[C@H]1[C@H](COC(=O)COCc1ccccc1)OCc1ccccc1 | inactive: > 100 µM |
| CSc1nc(Cl)c2c(n1)Sc1nc3cc4c(cc3n1C2O)OCCO4 (centres undefined) | inactive: 2.99 µM |
| CC(C)C[C@H]1[C@@H](OCc2ccccc2)COS(=O)(=O)N1[C@H](C)c1ccccc1 | inactive: > 100 µM |
| COc1cc2c(cc1OC)-c1c(oc3cc(OC4OC(CO)C(O)C(O)C4O)c(OC)cc3c1=O)C(O)O2 (centres undefined) | inactive: > 100 µM |
| CCOC(=O)c1nc2c(Cl)c3ncccc3cc2[nH]c1=O | inactive: 27.2 µM |
| COC(=O)C1(Cc2ccc3c(c2)CCC3)Cc2cc3c(cc2C1=O)CCC3 (centres undefined) | inactive: > 46.5 µM |
| CC(=O)/C(=C\NC(=S)Nc1ccc(S(N)(=O)=O)cc1)C(=O)Nc1ccccc1C | inactive: 62.8 µM |
| Cc1ccc2nc(CN(CCO)CCO)cc(=O)n2c1 | inactive: > 100 µM |
| CCOc1cnc(C(O)(c2ccccc2)c2ccccc2)o1 | inactive: > 100 µM |
| O=Cc1ccccc1CCn1c(=O)c2cc3c(=O)n(CCc4ccccc4C=O)c(=O)c3cc2c1=O | inactive: > 100 µM |
| CCCCCCC(CCl)c1sc(-c2csc(CCNC(=O)OC(C)(C)C)n2)nc1C(=O)OC (centres undefined) | inactive: 30.8 µM |
| O=[N+]([O-])C(/C(Cl)=C(/Cl)N1CCOCC1)=C1\Nc2ccccc2O1 | inactive: > 100 µM |
| COc1ccc(-c2csc(Cc3nc4c(Br)cc(Br)cc4c(=O)n3-c3ccc(OC)cc3)n2)cc1 | inactive: 46 µM |
| C[C@@H](Cl)[C@H]1CCCN(Cc2ccc(Br)cc2)C1 | inactive: > 12.5 µM |
| CN/N=C(\C)C(CN1CCCCC1)C(C1=C(O)c2ccccc2OC1)c1ccccc1 (centres undefined) | inactive: > 100 µM |
| O=C1C(Cl)=C(N[C@@H](Cc2ccccc2)C(=O)OCc2ccccc2)C(=O)c2c(O)ccc(O)c21 | inactive: 6.35 µM |
| COc1ccc(/C=C2/N/C(=N\N=C/C(O)C(O)C(O)CO)NC2=O)cc1 (centres undefined) | inactive: > 100 µM |
| CCn1c2ccccc2c2ccc(C3C(C(=O)OC)=C(C)NC(C)=C3C(=O)OC)cc21 | inactive: 33.7 µM |
| CCOC(=O)CCc1c(C(=O)OCC)[nH]c(/C=C2\NC(=O)C(C)=C2CC)c1C | inactive: 3.08 µM |
| CCCCC[C@@H]1OC(=O)[C@@]2(CC3c4ccccc4C2c2ccccc23)[C@H]1C(=O)OC | inactive: > 100 µM |
| CC(C)(C)C1CCC(CI)(N=[N+]=[N-])CC1 (centres undefined) | inactive: > 100 µM |
| O=C(/C=C/c1ccc(OCCCCCCCCCCOc2ccc(/C=C/C(=O)c3ccc(Cl)cc3)cc2)cc1)c1ccc(Cl)cc1 | inactive: > 100 µM |

| SMILES | GI50 |
| --- | --- |
| N#C/C(=C\c1cccc(Cl)c1Cl)c1ccccc1 | inactive: > 82.8 µM |
| CSc1n[nH]c2[nH]nc(C)c12 | inactive: > 100 µM |
| CN(C)CC1(Cc2ccccc2)CCC(Cc2ccccc2)C1=O (centres undefined) | inactive: 17.5 µM |
| O=c1c(SSc2coc3cc(F)ccc3c2=O)coc2cc(F)ccc12 | inactive: 28.5 µM |
| O=C(O)C12C3C4(C(=O)O)C1C1(C(=O)O)C2C3(C(=O)O)C41 (centres undefined) | inactive: > 100 µM |
| CC(C)c1cc(C(C)C)c(S(=O)(=O)NN)c(C(C)C)c1 | inactive: > 100 µM |
| O=C(NC(=O)c1c(Cl)nc2sccn12)Nc1ccc(Cl)cc1 | inactive: > 100 µM |
| Cc1cc2cc3c(cc2c(-c2ccc([N+](=O)[O-])cc2)n1)OCO3 | inactive: 37.5 µM |
| CC1(C)CC(=O)C2=C(C1)OC1(CC2c2ccc(Cl)cc2)CC(c2ccc(Cl)cc2)C2=C(CC(C)(C)CC2=O)O1 (centres undefined) | inactive: 15.5 µM |
| COc1cc2c(cc1O)N=C[C@@H]1CC[C@@H](O)N1C2=O.COc1cc2c(cc1O)N=C[C@@H]1CC[C@H](O)N1C2=O | inactive: 4.73 µM |
| COc1ccc(C(C#N)NNC(=O)Cc2ccccc2)cc1OC (centres undefined) | inactive: > 100 µM |
| CCOC(=O)NC(=O)c1cn(CCOCCOC(=O)NCCCCCCNC(=O)OCCOCCn2cc(C(=O)NC(=O)OCC)c(=O)[nH]c2=O)c(=O)[nH]c1=O | inactive: > 100 µM |
| CCOC(=O)C(O)Cc1cnc2ccccc2n1 (centres undefined) | inactive: > 100 µM |
| CN(C)P(=O)(/C(N)=N/Nc1ccc([N+](=O)[O-])cc1)N(C)C | inactive: > 100 µM |
| Nc1nc(-c2ccc(Cl)c([N+](=O)[O-])c2)cs1 | inactive: > 100 µM |
| COc1cc(S(=O)(=O)N/N=C/c2cc(Br)c(O)c(OC)c2)c(OC)cc1NC(C)=O | inactive: > 100 µM |
| COC(=O)C1=C(C(=O)OC)C2(C3C(SC)=CC(C)(C)CC3S1)N(Cc1ccccc1)CCN2Cc1ccccc1 (centres undefined) | inactive: 82 µM |
| O=C1C2c3[nH]c4ccccc4c3C3CCCCCCC3C2C(=O)N1c1ccccc1 (centres undefined) | inactive: 31.1 µM |
| Cc1ccc(-c2n[nH]c(=O)n2NC(=O)c2ccccc2C(=O)O)cc1 | inactive: > 100 µM |
| O=S1(=O)OCCOS(=O)(=O)C1I | inactive: > 100 µM |
| O=C1CC(C(O)CO)CC(=O)N1 (centres undefined) | inactive: > 100 µM |
| COc1nc(NC2OCC(OC(C)=O)C(OC(C)=O)C2OC(C)=O)c(-c2csc(N)n2)c(=O)n1C (centres undefined) | inactive: > 100 µM |
| c1ccc(C2C3=C(CCCC3)Nc3nnnn32)cc1 (centres undefined) | inactive: > 100 µM |
| Nc1ccc(C(=O)NN2C(=O)C(Cl)C2c2ccccc2O)cc1 (centres undefined) | inactive: 48.6 µM |

| SMILES | GI50 |
| --- | --- |
| O=C1C(Cl)C(c2ccccc2)N1n1cnc2ccccc2c1=O (centres undefined) | inactive: > 100 µM |
| CO[P@]1(=O)O[C@@H](c2ccccc2)[C@H](O)[C@]1(O)c1ccccc1 | inactive: > 100 µM |
| CC(C)N(C(=O)C12CC3CC(CC(C3)C1)C2)C(C)C | inactive: > 50 µM |
| OC(C1CCC=NN1C(O)(C(F)(F)F)C(F)(F)F)(C(F)(F)F)C(F)(F)F (centres undefined) | inactive: > 10 µM |
| COC(=O)CCCc1ccc2c(c1)CC1(Cc3ccccc3C1)C2 | inactive: > 100 µM |
| CC(=O)Oc1ccccc1-c1cc2ccccc2oc1=O | inactive: 98.6 µM |
| Cc1ccc2c(=O)cc(Cc3cccs3)[nH]c2n1 | inactive: > 100 µM |
| O=C1C(Cl)=C(N2CCOCC2)C(=O)c2c(O)ccc(O)c21 | inactive: 1.75 µM |
| CC(C)(C)N1C=[N+](C(C)(C)C)CC1 | inactive: > 100 µM |
| O=C(CC(=O)Nc1cccc(Cl)c1)NNCC(=O)Nc1nnc(-c2ccccc2)s1 | inactive: > 100 µM |
| CN1CCN(C(=S)N(C(=O)c2cccs2)C2CCCCC2)CC1 | inactive: > 100 µM |
| CCC12C=C(C(=O)OC)N3c4ccccc4C4CCN(CCC1)C2C43 (centres undefined) | inactive: 77.1 µM |
| CSc1ncnc2c1cnn2Cc1cn(COCCO)nn1 | inactive: 31.9 µM |
| CC(=O)OC(Cc1ccc2ccccc2n1)(C(F)(F)F)C(F)(F)F | inactive: 2.06 µM |
| O=C(O)Cn1cc([N+](=O)[O-])c(=O)c2ccccc21 | inactive: > 100 µM |
| O=S(=O)(O)c1ccc(O)c(/N=N/c2c(O)ccc3ccccc23)c1 | inactive: > 100 µM |
| CCCCCCCCCCCCCC(=O)CSCCNC(=O)CCNC(=O)[C@@H](O)C(C)(C)COP(=O)(O)OP(=O)(O)OCC1OC(n2cnc3c(N)ncnc32)C(O)C1OP(=O)(O)O (some centres undefined) | inactive: 20.1 µM |
| C[C@@]1(Cc2ccccc2)C(=O)N2[C@@H](CO)C(c3ccccc3)O[C@]2(C)c2ccccc21 (some centres undefined) | inactive: > 100 µM |
| COc1ccc(C2Oc3ccc(O)cc3[C@@H]2C)cc1OC (some centres undefined) | inactive: > 100 µM |
| CC(=O)C1C(=O)C(=O)N(c2ccccc2)C1=O (centres undefined) | inactive: > 100 µM |
| COc1cc2c(c(OC)c1OC)-c1ccc(SC)c(=O)cc1[C@@H](NC(=O)c1ccc([N+](=O)[O-])cc1)CC2 | active: 0.01 µM |
| NC(=O)NC(=O)c1cccc(NC(=O)CBr)c1 | active: 0.156 µM |
